The whole screen tested about 310,000 compounds, of which about 18,000 (5.8%) were called active. The shares of active, inactive and inconclusive entries below differ from those in the screen. The call rests on the fitted dose curve; in most records, active means well fitted inhibition curve with a large enough effect; inconclusive means small, poorly fitted or top-dose-only effect, or another doubt; inactive means no such curve, though single readings can be large or run the other way. No potency is given beside an inconclusive call; the fits are too rough.
experiment: Primary qHTS for delayed death inhibitors of the malarial parasite plastid, 48 hour incubation; conditions: P. falciparum luciferase growth in erythrocytes; series mostly up to 28.7 µM
Summary of the method: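 Cell-based growth assay: transgenic P. falciparum expressing firefly luciferase, cultured in red cells within RPMI 1640 containing 0.5% w/v Albumax, 24 mM bicarbonate and gentamycin. A drop in luciferase activity indicates inhibition.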
Potency means the concentration at half of the fitted maximal effect; tags describe the fitted curve by direction and shape.

Compound | Potency
C=CCn1c(=N)n(CC(O)COc2ccc(OC)cc2)c2ccccc21 (stereo not given) | inconclusive [inhibitor, single point]
O=c1c(Cc2ccc(F)cc2)c(O)ccn1CCc1ccccn1 | inactive
COc1ccccc1Nc1ccc(N)cc1 | inconclusive [inhibitor, single point]
CO/N=C/C(C#N)=C/c1cc(C(=O)c2ccc(F)cc2)cn1C | inconclusive [inhibitor, single point]
OC[C@H]1OC(Nc2ccc(N=Nc3ccccc3)cc2)[C@@H](O)[C@@H](O)[C@@H]1O (stereo not given in full) | inactive
CC(C(=O)N1CCCc2c1c(=O)oc1ccc(O)cc21)N1CCc2ccccc2C1 (stereo not given) | inconclusive [inhibitor, partial curve, poor fit]
CCCCCC(=O)Nc1ccc(Cl)cn1 | inactive
CCO[C@@H]1OC(C(=O)N2CCN(Cc3ccccc3)CC2)=C[C@H](C2CC2)[C@H]1CCCO | inconclusive [inhibitor, partial curve]
Cc1ccc(Nc2c(-c3ccccn3)nc3ccc(C)cn23)cc1 | inconclusive [inhibitor, partial curve]
C[C@H]1CCC(=O)N([C@H](COc2ccccc2)Cc2ccccc2)CC1 | inconclusive [inhibitor, partial curve, poor fit]
Fc1ccc(C2CCCN2Cc2nc(Cc3ccccc3)no2)cc1 (stereo not given) | inconclusive [inhibitor, partial curve, poor fit]
O=S(=O)(c1ccccc1)n1nc(-c2ccccc2)nc1NCc1ccco1 | inactive
CCOC(=O)c1sc(NC(=O)c2ccc(Cl)s2)cc1C | inconclusive [inhibitor, single point]
CCC1Oc2ccc(C)cc2N(CC(=O)NCCN2CCOCC2)C1=O (stereo not given) | inactive
C=C(C)CN(CC)C(=O)CC1C(=O)NCCN1CC(C)(C)C (stereo not given) | inactive
O=C(CN1C(=O)NC2(CCCCC2)C1=O)Nc1ccccc1N1CCCCC1 | inconclusive [inhibitor, single point]
Cc1ccc(N(CC(=O)NC2CCCCCC2)S(=O)(=O)c2c(C)nn(C)c2C)cc1 | inactive
COc1ccc(S(=O)(=O)N2CCOCC2)cc1NC(=O)CSc1n[nH]c(C(C)C)n1 | inconclusive [inhibitor, partial curve, poor fit]
CN(C)c1oc(-c2ccccc2[N+](=O)[O-])nc1C#N | inactive
CCN(CC)CCNCc1ccc(OCc2ccc(Cl)nc2)c(OC)c1 | active: 10.4 µM
Cn1c(C(O)C(O)c2ccccc2)nc2ccccc21 (stereo not given) | inactive
Cc1ccccc1OCC(=O)O/N=C(\N)c1ccncc1 | inconclusive [inhibitor, single point]
O=C(Nc1ccccn1)c1ccc(Cl)c(S(=O)(=O)N2CCCC2)c1 | inconclusive [inhibitor, single point]

Compound | Potency
CCn1c(CNc2cccc(Cl)c2)nnc1SCc1ccccc1 | inconclusive [inhibitor, single point]
CCCCCOc1ccc(C(=O)NCC(=O)NCC(=O)OCC)cc1 | inactive
O=C(NCC(c1cccs1)N1CCc2ccccc21)c1ccccc1 (stereo not given) | inconclusive [inhibitor, single point]
CC1CC(C)CN(CCCNC(=O)c2ccc3c(c2)NC(=O)C(N2CCCCC2)S3)C1 (stereo not given) | inconclusive [inhibitor, single point]
CCN(CCN(C)C)C(=O)C1CCN(S(=O)(=O)c2c(C)noc2/C=C/c2ccccc2F)CC1 | active: 9.28 µM
CC1CCN(C(=O)C2CCN(C(=O)c3cc4sccc4n3Cc3ccc(F)cc3)CC2)CC1 | inconclusive [inhibitor, single point]
COc1ccc(OC)c(NC(=S)N(CCc2c(C)[nH]c3ccccc23)Cc2cccs2)c1 | inconclusive [inhibitor, single point]
CCN1/C(=C/c2ccc3cc(C)ccc3[n+]2CC)Sc2cc(C)ccc21 | inconclusive [inhibitor, full curve]
O=C(Nc1ccc(C(=O)N2CCN(c3ccccn3)CC2)cc1)c1ccc(Br)o1 | inconclusive [inhibitor, single point]
COc1ccc(NC(=O)C(=O)NCCC2CCCCN2S(=O)(=O)c2cccs2)cc1 (stereo not given) | inconclusive [inhibitor, partial curve, poor fit]
Oc1ccc(N2CCN(c3ncnc4sc(-c5ccccc5)cc34)CC2)cc1 | inconclusive [inhibitor, partial curve, poor fit]
Cc1ccc(-c2cc(C(F)(F)F)nn2-c2ccc(S(N)(=O)=O)cc2)cc1 | active: 15.1 µM
Cc1cc(C)c(C(=O)COc2cccnc2[N+](=O)[O-])cc1C | inactive
COc1cc(C)c(S(=O)(=O)NCc2cccnc2)cc1C | inactive
Cc1ccc(-c2oc3ccccc3c(=O)c2O)cc1 | active: 3.7 µM
O=C(CSc1ncnc2nc[nH]c12)N1CCN(c2ccc(Cl)cc2)CC1 | inconclusive [inhibitor, full curve, poor fit]
CC(OC(=O)c1ccccc1NCCO)C(=O)Nc1ccc(S(=O)(=O)N2CCOCC2)cc1 (stereo not given) | inconclusive [inhibitor, partial curve, poor fit]
CCc1ccc(N(CC(=O)NC2CCCC2)C(=O)CCC(=O)Nc2ccccn2)cc1 | inconclusive [inhibitor, partial curve, poor fit]
OC1CCCN(CC(O)COC(c2ccc(F)cc2)c2ccc(F)cc2)C1 (stereo not given) | active: 2.62 µM
COC(=O)C1=C(C)N(c2ccc(OC)cc2)C(C)=C(C(=O)OC)C1c1ccccc1 | active: 1.31 µM
CCOc1ccc(NC(=O)Cn2c(=O)n(CCCC(=O)NC3CCN(Cc4ccccc4)CC3)c(=O)c3ccccc32)cc1 | active: 5.22 µM
Cc1ccc(-c2nnn(CCOc3cccc(Br)c3)n2)cc1 | inactive
